54 molecules from ChEMBL document CHEMBL1201862, “PubChem BioAssay data set” (2004) can be followed below.

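Each compound was tested at five concentrations against cells in 96-well plates for 48 hours. The concentration for 50% growth inhibition is given as GI50.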 The source made the active and inactive calls. Cut-off read from the data, not from the text of the source: active = GI50 up to about 1.1 µM and inactive = higher.

This experiment deals with NCI-H322M. Kind of experiment: DTP human tumour cell line panel, 48 h.
For `CC1CCN(CC(=O)N2c3ccccc3Sc3cc4ccccc4cc32)CC1`, the GI50 was inactive: > 100 µM.

Consider `COc1ccc(/C=C2\CCCCC2=O)cc1`, for which the GI50 was inactive: > 100 µM.

As to `COc1ccccc1OCC(=N/NC(=O)c1ccncc1)/N=C/c1cccnc1`, the GI50 is inactive: > 100 µM.

For the molecule `CC(C)NC(=O)OCCN=C1c2ccccc2C(Br)C(Br)c2ccccc21` (centres undefined), the GI50 is inactive: 30.9 µM.

With `Cc1ccc(C(=O)/C=C/c2ccccc2O)c(C)c1`, the GI50 was inactive: > 100 µM.

`OC12CC3c4ccccc4NC3C3Oc4cccc5c4C31CCN(CC1CC1)C2C5` (centres undefined): the GI50 is inactive: 15.7 µM.

`CS(=O)(=O)Nc1ccc2ccccc2c1-c1c(NS(C)(=O)=O)ccc2ccccc12`: the GI50 was inactive: > 25 µM.

Take `OC1C2CCC1C1C3C=CC(C3)C21` (centres undefined): the GI50 was inactive: > 100 µM.

For the molecule `CN(C)CCC(/C=C/c1ccccc1)=N\Nc1ccccc1`, the GI50 was inactive: 10.6 µM.

With `CCOC(=O)c1cn(C)nc1N/C(C)=C\C(=O)c1ccccc1`, the GI50 is inactive: > 100 µM.

As to `CC(C)(C)c1ccc(-n2c3nc(=O)n(-c4ccccc4C(F)(F)F)c(=O)c-3cc3ccccc32)cc1`, the GI50 was inactive: 17.7 µM.

For the molecule `O=[N+]([O-])c1ccc(/C(=N/c2ccccc2)SS/C(=N\c2ccccc2)c2ccc([N+](=O)[O-])o2)o1`, the GI50 is inactive: 1.75 µM.

On to `CC[C@H](C)C1=C(O)[N@+]2([O-])Oc3ccc(-c4c(O)c(O)c(-c5ccc(OC(C)=O)cc5)c(OC(C)=O)c4OC(C)=O)cc3O[C@]2([C@@H](C)CC)C(=O)N1O`, for which the GI50 was inactive: 29.4 µM.

Regarding `COc1cc(-c2[o+]c3cc(O)cc(OC4OC(CO)C(O)C(O)C4O)c3cc2OC2OC(CO)C(O)C(O)C2O)cc(OC)c1O` (centres undefined), the GI50 is inactive: > 100 µM.

With `COc1ccc(C(OCC2OC(n3cc(C)c(=O)[nH]c3=O)CC2n2cc(Cn3cc(F)c(=O)[nH]c3=O)nn2)(c2ccccc2)c2ccccc2)cc1` (centres undefined), the GI50 is inactive: 4.8 µM.

As to `CC(C)(C)N/N=C(/Cc1nc2c3c(ccc2nc1O)C(=O)c1ccccc1C3=O)C(=O)NC1=C(Cl)C(=O)c2ccccc2C1=O`, the GI50 is inactive: 33 µM.

On to `C=CC(Br)(CBr)CCC(Br)C(C)(C)Cl` (centres undefined), for which the GI50 is inactive: 2.99 µM.

Take `C[n+]1cc(C(O)c2ccc3c(c2)OCO3)c2ccccc2c1` (centres undefined): the GI50 was inactive: 32.3 µM.

Turning to `COc1cc(CC(=O)c2cc3c(cc2-c2ccccc2)OCO3)cc(OC)c1OC`, the GI50 was inactive: > 100 µM.

On to `Cc1nc(-c2ccccc2)c(-c2ccccc2)s1`, for which the GI50 was inactive: 31.3 µM.

Consider `CCCCCCCCCCCC(=O)OCCOCCOCCOCCOCCOCc1ccccc1`, for which the GI50 is inactive: > 100 µM.

Consider `COc1ccc(/C(=C/n2ccnc2)C(O)c2ccc(OC)c(OC)c2)cc1OC` (centres undefined), for which the GI50 was inactive: > 100 µM.

Take `CCCCc1c2c(nc3c1CCC/C3=C\c1ccccc1)/C(=C/c1ccccc1)CCC2`: the GI50 was inactive: > 100 µM.

In the case of `COc1ccc(/C=C2\CCC(C)C3=C2NC(=S)NC3c2ccc(OC)c(OC)c2)cc1OC` (centres undefined), the GI50 is inactive: 27.5 µM.

Regarding `CCCn1c(=O)c2nn3c(=O)n(CCC)c(=O)c3nn2c1=O`, the GI50 was inactive: > 100 µM.

As to `O=C(O)CCC1NC(/C(=C/c2ccccc2O)NC(=O)c2ccccc2)OC1=O` (centres undefined), the GI50 is inactive: > 100 µM.

Take `O=C(O)c1nc2ccc(C(F)(F)F)cc2nc1NCc1ccc(F)cc1`: the GI50 was inactive: 23.7 µM.

With `CCOC(=O)C(Br)(C(N)=O)C1(O)OC(c2ccccc2)=C(Br)C1=O` (centres undefined), the GI50 was inactive: > 100 µM.

As for `CC(=S)NNC(=O)c1ccncc1`, the GI50 was inactive: > 100 µM.

Turning to `O=c1/c(=C/c2ccc([N+](=O)[O-])o2)sc2n1[C@@H](c1ccc(Cl)cc1)C=C(c1cc(F)c(Cl)cc1Cl)N=2`, the GI50 is inactive: 14.3 µM.

With `O=c1[nH]c(=O)n(C2CC(O)C(CO)O2)cc1C#Cc1ccc(C(F)(F)F)cc1` (centres undefined), the GI50 is inactive: > 100 µM.

In the case of `CC1=CCC[C@@](C)(O)[C@@H]2C[C@H]3C(CSc4ccccc4)C(=O)O[C@H]3[C@@H](O2)[C@H](C)CCC1` (some centres undefined), the GI50 is inactive: 19.2 µM.

In the case of `O=C1Nc2ccc(Br)cc2/C1=N/Nc1ccc([N+](=O)[O-])cc1[N+](=O)[O-]`, the GI50 was inactive: 10.9 µM.

Turning to `Cc1cc2c(C)nn(Cc3ccccc3Cl)c2c(C#N)c1C`, the GI50 is inactive: > 100 µM.

Consider `CC(=O)OCC1OC(n2c(=S)n(-c3ccccc3)c(=O)c3cc(Br)ccc32)C(OC(C)=O)C(OC(C)=O)C1OC(C)=O` (centres undefined), for which the GI50 is inactive: > 100 µM.

With `C[C@H]1C=C2[C@@H]3CC(C)(C(=O)O)CC[C@]3(C)CC[C@]2(C)[C@]2(C)CC[C@H]3C(C)(C)[C@@H](OC(=O)c4cccc5c(=O)c6ccccc6[nH]c45)CC[C@]3(C)[C@@H]12` (some centres undefined), the GI50 is inactive: > 100 µM.

Consider `COC(=O)C(=O)C(C(=O)C1=NS(=O)(=O)c2cc(S(N)(=O)=O)c(Cl)cc2N1)c1nc2ccc(C(=O)c3ccccc3)cc2nc1O` (centres undefined), for which the GI50 was inactive: > 100 µM.

Consider `CCCCCCCCCCC(O)[C@H]1CCC(C2CC[C@H]([C@H](O)CCCCCCCCCCC(O)CC3=CC(C)OC3=O)O2)O1` (some centres undefined), for which the GI50 is inactive: 3.46 µM.

With `CC(C)(C)OC(=O)NCCCCC(NC(=O)OCc1ccccc1)C(N)=O` (centres undefined), the GI50 is inactive: > 100 µM.

With `CC(C)c1ccc(NC(=S)NC(=O)c2ccccc2)cc1`, the GI50 was inactive: 35.2 µM.

As to `Cc1ccc([S+](c2ccccc2)c2cc(C)ccc2C)cc1` (centres undefined), the GI50 is active: 0.094 µM.

Turning to `CC1(C)[C@@H]2CC[C@@]1(C)[C@@H]1O[C@@H](O[C@@H](CN)c3cc(Cl)c(OCc4ccccc4)c(OCc4ccccc4)c3)C[C@H]21`, the GI50 is active: 0.174 µM.

Consider `O=C(c1ccccn1)c1nnn2ccccc12`, for which the GI50 is inactive: > 100 µM.

As for `CS/C(C)=N/OC(=O)NCCCCNc1ccc(N=[N+]=[N-])cc1`, the GI50 is inactive: 68.4 µM.

As to `CCn1sc2ccccc2c1=O`, the GI50 was inactive: 27.8 µM.

For `C(=N\Cc1ccccc1)/c1ccccc1-c1ccccc1/C=N/Cc1ccccc1`, the GI50 is inactive: > 10 µM.

Turning to `COc1ccc(-c2c(C(C)=O)c(C)n(C3OC(CO)C(O)C(O)C3O)c(=S)c2C#N)cc1` (centres undefined), the GI50 is inactive: > 100 µM.

On to `COc1cccc(C(=O)O)c1Cc1cccc2ccccc12`, for which the GI50 was inactive: > 100 µM.

Take `CN(CCN(C)C(=O)CCOS(C)(=O)=O)C(=O)CCOS(C)(=O)=O`: the GI50 is inactive: > 100 µM.

Regarding `O=C(O)c1ccc(NNc2cc(=O)[nH]c(=O)[nH]2)cc1`, the GI50 is inactive: > 100 µM.

For the molecule `C[C@H]1[C@H]2[C@H](C[C@@]3(C)C4=CC[C@H]5C(C)(C)[C@@H](OC6OCC(O)C(O)C6O)CC[C@@]56C[C@@]46CC[C@]23C)O[C@@]2(O)[C@@H]1OC(C)(C)[C@H]2O` (some centres undefined), the GI50 was inactive: 4.17 µM.

Take `Cc1cc(NC(=O)NC(=O)c2ccccc2N(C)C)ccc1Oc1ncc(Br)cn1`: the GI50 is inactive: 2.22 µM.

Consider `O=C1/C(=N/CCc2cc(Br)c(O)c(Br)c2)C=C(O)c2cccnc21`, for which the GI50 was inactive: 1.96 µM.

Turning to `O=C(NC12CC3CC(CC(C3)C1)C2)C(=O)c1c[nH]c2ccccc12`, the GI50 was inactive: 17.2 µM.
